A collection of fitness landscapes (doi:10.1016/j.celrep.2020.107928)
Whole data set: some 81,000 sequences, median “one-hybrid fitness for binding NBS DNA” near -0.1, cut for the highest 2% near 0.36. The list shows a part of the results.

B1: Caulobacter ParB omega fusion; a variant is named by its letters at X, in order, B8GW30 (parent)
chain: MESVVVGEPGMSEGRRGLGRGLSALLGEVDAAPAQAPGEQLGGSREAPIEILQRNPDQPRRTFREEDLEDLSNSIREKGVLQPILVRPSPDTAGEYQIVAGERAWRAAQRAGLKTVPIMVRELDDLAVLEIGIIENVQRADLNVLEEALSYKVLMEKFERTQENIAQTIGKSXSHVANXMRLLXLPDEVQSYLVSGELTAXHARAIAAAADPVALAKQIIEGGLSVRETEALARKAPNLSAGKSKGGRPPRVKDTDTQALESDLSSVLGLDVSIDHRGSTGTLTITYATLEQLDDLCNRLTRGI

Variants of: B1
Experiment: one-hybrid fitness for binding NBS DNA (the Noc-binding site; scaled: cognate 1, non-cognate 0); higher = stronger binding
Conditions: with NBS DNA site
How it was run: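 On M9-minus-histidine containing 0.1 mM IPTG and 5 mM 3-AT, E. coli USO cells with a HIS3 reporter, site 19 bp from the promoter, grew 48 hours at 37°C to select Caulobacter ParB libraries randomised at four specificity codons. Plasmids from before and after were Illumina-sequenced, with three replicate libraries pooled and variants under 10 reads left out. Fitness is the log change in variant-to-wild-type read ratio, rescaled against cognate and non-cognate.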

Variant | one-hybrid fitness for binding NBS DNA
YIYR | ≤ 0.2
AHPQ | ≤ 0.2
YVSS | ≤ 0.2
YISW | ≤ 0.2
PETA | ≤ 0.2
KNDG | ≤ 0.2
CTNA | ≤ 0.2
SNNL | ≤ 0.2
RNNW | ≤ 0.2
ARRQ | ≤ 0.2
KTKW | ≤ 0.2
SDPL | ≤ 0.2
KIRY | ≤ 0.2
SMRT | ≤ 0.2
IMHC | ≤ 0.2
EKSD | ≤ 0.2
QSFY | ≤ 0.2
RAGC | ≤ 0.2
RDHK | ≤ 0.2
HSQL | ≤ 0.2
HRSN | ≤ 0.2
FPLS | ≤ 0.2
TFIS | ≤ 0.2
RAES | ≤ 0.2

Variant | one-hybrid fitness for binding NBS DNA
MGID | ≤ 0.2
VVDR | ≤ 0.2
VDKH | ≤ 0.2
RINW | ≤ 0.2
DWKY | ≤ 0.2
HYFN | ≤ 0.2
GYEP | ≤ 0.2
PRGL | ≤ 0.2
IGRT | ≤ 0.2
SCGI | ≤ 0.2
YYNT | ≤ 0.2
GCQS | ≤ 0.2
TIFC | ≤ 0.2
IASM | ≤ 0.2
TACE | ≤ 0.2
PMTT | ≤ 0.2
LAMD | ≤ 0.2
LWRC | ≤ 0.2
RMVI | ≤ 0.2
REVV | ≤ 0.2
HGIR | ≤ 0.2
YNSM | ≤ 0.2
RSWY | ≤ 0.2
NEPI | ≤ 0.2

Variant | one-hybrid fitness for binding NBS DNA
GIIN | ≤ 0.2
PENS | ≤ 0.2
CNKS | ≤ 0.2
SVQA | ≤ 0.2
PLET | ≤ 0.2
RYII | ≤ 0.2
SYPR | ≤ 0.2
YPRS | ≤ 0.2
AHVS | ≤ 0.2
NESN | ≤ 0.2
SQTR | ≤ 0.2
AIHR | ≤ 0.2
EWYV | ≤ 0.2
NCMW | ≤ 0.2
TNQC | ≤ 0.2
YFER | ≤ 0.2
PPSQ | ≤ 0.2
GPNR | ≤ 0.2
TPDP | ≤ 0.2
NLFY | ≤ 0.2
RFMY | ≤ 0.2
PSLP | ≤ 0.2
ATGY | ≤ 0.2
TERN | ≤ 0.2

Variant | one-hybrid fitness for binding NBS DNA
KYET | ≤ 0.2
LRTR | ≤ 0.2
KVDW | ≤ 0.2
FGLG | ≤ 0.2
QEPT | ≤ 0.2
PEMY | ≤ 0.2
DGHG | ≤ 0.2
TARQ | ≤ 0.2
PWFS | ≤ 0.2
TVAN | ≤ 0.2
DLTY | ≤ 0.2
QGFR | ≤ 0.2
ESDV | ≤ 0.2
FVPV | ≤ 0.2
ARMK | ≤ 0.2
FSHL | ≤ 0.2
SVDG | ≤ 0.2
VDGC | ≤ 0.2
TGTY | ≤ 0.2
NPRM | ≤ 0.2
TSDC | ≤ 0.2
SPSR | ≤ 0.2
NAMN | ≤ 0.2
RFTH | ≤ 0.2

Variant | one-hybrid fitness for binding NBS DNA
SKTD | ≤ 0.2
DRRG | ≤ 0.2
ITSI | ≤ 0.2
TKNC | ≤ 0.2
EMLY | ≤ 0.2
WVLS | ≤ 0.2
HTAF | ≤ 0.2
LLLH | ≤ 0.2
QTTL | ≤ 0.2
MCNF | ≤ 0.2
ECAT | ≤ 0.2
RAHS | 0.482
RDNI | ≤ 0.2
LLDS | ≤ 0.2
HFTC | ≤ 0.2
QVLH | ≤ 0.2
DWNG | ≤ 0.2
MPAL | ≤ 0.2
RVPR | ≤ 0.2
RFYH | ≤ 0.2
YRDC | ≤ 0.2
PIPP | ≤ 0.2
ATPE | ≤ 0.2
PPAC | ≤ 0.2

Variant | one-hybrid fitness for binding NBS DNA
RHDL | ≤ 0.2
CQWS | ≤ 0.2
RLFK | ≤ 0.2
QLES | ≤ 0.2
MPEL | ≤ 0.2
ASRL | ≤ 0.2
GQNV | ≤ 0.2
KQQS | ≤ 0.2
DHCR | ≤ 0.2
FLNT | ≤ 0.2
QLQV | ≤ 0.2
QICT | 0.266
QDEP | ≤ 0.2
NQYC | ≤ 0.2
TPNF | ≤ 0.2
PQRC | ≤ 0.2
CSRR | ≤ 0.2
PWWF | ≤ 0.2
HPQL | ≤ 0.2
CYWT | ≤ 0.2
KTAN | ≤ 0.2
RKIT | 0.361
RTAI | ≤ 0.2
QRRE | 0.346

Variant | one-hybrid fitness for binding NBS DNA
FPPA | ≤ 0.2
QFKY | ≤ 0.2
RNKK | ≤ 0.2
RFPF | ≤ 0.2
KSWS | ≤ 0.2
WYNS | ≤ 0.2
DGSR | ≤ 0.2
VDPG | ≤ 0.2
DMVV | ≤ 0.2
YPLG | ≤ 0.2
PHNS | ≤ 0.2
HVFR | ≤ 0.2
PKYT | ≤ 0.2
VSQS | ≤ 0.2
HFEY | ≤ 0.2
ARVQ | ≤ 0.2
HCQG | ≤ 0.2
IPGV | ≤ 0.2
IPNR | ≤ 0.2
EKRL | ≤ 0.2
NEKS | ≤ 0.2
QTKW | 0.439
QAIM | ≤ 0.2
FMLV | ≤ 0.2

Variant | one-hybrid fitness for binding NBS DNA
RPTW | ≤ 0.2
SICD | ≤ 0.2
RSMQ | ≤ 0.2
FTDG | ≤ 0.2
LCAR | ≤ 0.2
AHMD | ≤ 0.2
NSVY | ≤ 0.2
IDSS | ≤ 0.2
TGNY | ≤ 0.2
LTTS | ≤ 0.2
WIIF | ≤ 0.2
QKRN | 0.37
LLCA | ≤ 0.2
DPNV | ≤ 0.2
IIMV | ≤ 0.2
SKCE | ≤ 0.2
KGPQ | ≤ 0.2
LDIG | ≤ 0.2
NRPM | ≤ 0.2
NEQC | ≤ 0.2
CRCS | ≤ 0.2
PWHG | ≤ 0.2
AVHS | ≤ 0.2
DLMV | ≤ 0.2

Variant | one-hybrid fitness for binding NBS DNA
LADD | ≤ 0.2
RVIL | ≤ 0.2
RFSK | ≤ 0.2
DMAG | ≤ 0.2
GCPG | ≤ 0.2
AKHI | ≤ 0.2
SQPM | ≤ 0.2
TYAW | ≤ 0.2
DTCS | ≤ 0.2
LMCC | ≤ 0.2
FMGR | ≤ 0.2
HGWT | ≤ 0.2
APCA | ≤ 0.2
ERQL | ≤ 0.2
LYHP | ≤ 0.2
IMCV | ≤ 0.2
AEAD | ≤ 0.2
GCIT | ≤ 0.2
AGPN | ≤ 0.2
FLYT | ≤ 0.2
ITCR | ≤ 0.2
KGHG | ≤ 0.2
YFDI | ≤ 0.2
FARS | ≤ 0.2

Variant | one-hybrid fitness for binding NBS DNA
DFDS | ≤ 0.2
CPGR | ≤ 0.2
DTNG | ≤ 0.2
KLIL | ≤ 0.2
VAVG | ≤ 0.2
QKNG | ≤ 0.2
NNGV | ≤ 0.2
QAHT | 0.414
EEVR | ≤ 0.2
ASRQ | ≤ 0.2
VWHS | ≤ 0.2
FKSL | ≤ 0.2
RQDA | ≤ 0.2
VMVR | ≤ 0.2
SLCT | ≤ 0.2
RYSL | ≤ 0.2
PNHS | ≤ 0.2
ERKY | ≤ 0.2
RTKF | ≤ 0.2
SMAN | ≤ 0.2
GVVS | ≤ 0.2
MSRT | ≤ 0.2
RMYV | ≤ 0.2
HTNG | ≤ 0.2

Variant | one-hybrid fitness for binding NBS DNA
IKAC | ≤ 0.2
AKQC | ≤ 0.2
YGFT | ≤ 0.2
THHV | ≤ 0.2
SNTM | ≤ 0.2
STGP | ≤ 0.2
MKPF | ≤ 0.2
YCCS | ≤ 0.2
VKRV | ≤ 0.2
EQAF | ≤ 0.2
ENKC | ≤ 0.2
LQLI | ≤ 0.2
DLTW | ≤ 0.2
LNTS | ≤ 0.2
MSNS | ≤ 0.2
MRID | ≤ 0.2
CCQY | ≤ 0.2
DGHF | ≤ 0.2
TLLY | ≤ 0.2
DETM | ≤ 0.2
LDDM | ≤ 0.2
SFAP | ≤ 0.2
YQGC | ≤ 0.2
PEPD | ≤ 0.2

Variant | one-hybrid fitness for binding NBS DNA
NLWC | ≤ 0.2
AHLD | ≤ 0.2
VAMH | ≤ 0.2
IEAA | ≤ 0.2
PCGS | ≤ 0.2
QNHG | ≤ 0.2
LTAP | ≤ 0.2
AMYS | ≤ 0.2
GYDR | ≤ 0.2
SHPH | ≤ 0.2
HPEC | ≤ 0.2
LNSC | ≤ 0.2
MIPR | ≤ 0.2
HSMV | ≤ 0.2
TIYG | ≤ 0.2
STEW | ≤ 0.2
DEHN | ≤ 0.2
AAKF | ≤ 0.2
EIQC | ≤ 0.2
LYKR | ≤ 0.2
SFTP | ≤ 0.2
GFGY | ≤ 0.2
RSFF | ≤ 0.2
SYPL | ≤ 0.2

Variant | one-hybrid fitness for binding NBS DNA
QPND | ≤ 0.2
QLVW | ≤ 0.2
PGRT | ≤ 0.2
PHAF | ≤ 0.2
LQKK | ≤ 0.2
LRFH | ≤ 0.2
SKSG | ≤ 0.2
GCPS | ≤ 0.2
SLGL | ≤ 0.2
KPMP | ≤ 0.2
EMLR | ≤ 0.2
AFEM | ≤ 0.2
RGRI | ≤ 0.2
SDAG | ≤ 0.2
PRIT | ≤ 0.2
RYVP | ≤ 0.2
NTGT | ≤ 0.2
PNLS | ≤ 0.2
